Assay results from PMC12820563, “FoxP3 forms a head-to-head dimer in vivo and stabilizes its multimerization on adjacent microsatellites”.
This is one part of the list.

target: T1, MBP-FoxP1dN (Mus musculus, UniProt P58462 326-579); experiment: PD-seq (MBP pull-down with sequencing); 20 mM Tris-HCl pH 7.5, 100 mM NaCl, 1.5 mM MgCl2, 0.4 uM protein, 0.1 uM dsDNA library, 30 min, room temperature, amylose pull-down; high values mean tight binding; settings: protein: recombinant; tags: His6-MBP; chain copies: 2; dsDNA, one strand shown
T1 sequence: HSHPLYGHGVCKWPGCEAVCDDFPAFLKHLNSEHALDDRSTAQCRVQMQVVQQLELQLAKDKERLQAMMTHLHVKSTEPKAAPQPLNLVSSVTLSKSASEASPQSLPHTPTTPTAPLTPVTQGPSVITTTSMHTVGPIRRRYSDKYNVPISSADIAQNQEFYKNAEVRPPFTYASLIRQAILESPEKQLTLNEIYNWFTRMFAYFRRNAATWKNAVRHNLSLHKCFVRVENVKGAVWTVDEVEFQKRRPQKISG
Procedure, shortened: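 E. coli-expressed mouse FoxP3 or FoxP1 fragment, N-terminus removed and tagged with His6-MBP, was used at 0.4 µM against 0.1 µM of a Klenow-filled degenerate double-stranded DNA library. After 30 min at room temperature in Tris pH 7.5 buffer with NaCl and MgCl2, complexes were pulled down on amylose resin and washed three times. Binding is pull-down over input reads-per-million enrichment from pooled replicates of the proteinase K-released, PCR-barcoded, Illumina-sequenced DNA.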

Row | Sequence | binding signal
1 | GATGATTGTTCTCCCAGCTGATGAATTATTTCCATCGAGTAAACAAATTTTCCTAATCTTTCTGTTCAAGCGCCATCTAC | 1.12 RPM ratio (pull-down/input)
2 | GATGATTGTTCTCCCAGCTGATGAATTTTCCAATTCGAGTAAACAAATTTTCCTAATCTTTCTGTTCAAGCGCCATCTAC | 1.03 RPM ratio (pull-down/input)
3 | GATGATTGTTCTCCCAGCTGATGAATTCTGAGGTTCGAGTAAACAAATTTTCCTAATCTTTCTGTTCAAGCGCCATCTAC | 0.731 RPM ratio (pull-down/input)
4 | GATGATTGTTCTCCCAGCTGATGAATTCGCGTAGTCGAGTAAACAAATTTTCCTAATCTTTCTGTTCAAGCGCCATCTAC | 0.866 RPM ratio (pull-down/input)
5 | GATGATTGTTCTCCCAGCTGATGAATTCGCCTAGTCGAGTAAACAAATTTTCCTAATCTTTCTGTTCAAGCGCCATCTAC | 0.725 RPM ratio (pull-down/input)
6 | GATGATTGTTCTCCCAGCTGATGAATTTTCGTTATCGAGTAAACAAATTTTCCTAATCTTTCTGTTCAAGCGCCATCTAC | 1.07 RPM ratio (pull-down/input)
7 | GATGATTGTTCTCCCAGCTGATGAATTTGTTTGTTCGAGTAAACAAATTTTCCTAATCTTTCTGTTCAAGCGCCATCTAC | 2.73 RPM ratio (pull-down/input)
8 | GATGATTGTTCTCCCAGCTGATGAATTGGAGTCATCGAGTAAACAAATTTTCCTAATCTTTCTGTTCAAGCGCCATCTAC | 0.884 RPM ratio (pull-down/input)
9 | GATGATTGTTCTCCCAGCTGATGAATTCCGACTATCGAGTAAACAAATTTTCCTAATCTTTCTGTTCAAGCGCCATCTAC | 0.937 RPM ratio (pull-down/input)
10 | GATGATTGTTCTCCCAGCTGATGAATTCGTTAGGTCGAGTAAACAAATTTTCCTAATCTTTCTGTTCAAGCGCCATCTAC | 0.805 RPM ratio (pull-down/input)
11 | GATGATTGTTCTCCCAGCTGATGAATTGAGGTTGTCGAGTAAACAAATTTTCCTAATCTTTCTGTTCAAGCGCCATCTAC | 1.06 RPM ratio (pull-down/input)
12 | GATGATTGTTCTCCCAGCTGATGAATTGCTTCCATCGAGTAAACAAATTTTCCTAATCTTTCTGTTCAAGCGCCATCTAC | 1.13 RPM ratio (pull-down/input)
13 | GATGATTGTTCTCCCAGCTGATGAATTGGCCACGTCGAGTAAACAAATTTTCCTAATCTTTCTGTTCAAGCGCCATCTAC | 0.873 RPM ratio (pull-down/input)
14 | GATGATTGTTCTCCCAGCTGATGAATTGTCTGTCTCGAGTAAACAAATTTTCCTAATCTTTCTGTTCAAGCGCCATCTAC | 0.904 RPM ratio (pull-down/input)
15 | GATGATTGTTCTCCCAGCTGATGAATTCTTTTCGTCGAGTAAACAAATTTTCCTAATCTTTCTGTTCAAGCGCCATCTAC | 0.911 RPM ratio (pull-down/input)
16 | GATGATTGTTCTCCCAGCTGATGAATTCCAAGTTTCGAGTAAACAAATTTTCCTAATCTTTCTGTTCAAGCGCCATCTAC | 0.893 RPM ratio (pull-down/input)

Row | Sequence | binding signal
17 | GATGATTGTTCTCCCAGCTGATGAATTTTAAAACTCGAGTAAACAAATTTTCCTAATCTTTCTGTTCAAGCGCCATCTAC | 0.961 RPM ratio (pull-down/input)
18 | GATGATTGTTCTCCCAGCTGATGAATTATGCCGATCGAGTAAACAAATTTTCCTAATCTTTCTGTTCAAGCGCCATCTAC | 1.02 RPM ratio (pull-down/input)
19 | GATGATTGTTCTCCCAGCTGATGAATTCTAGGGATCGAGTAAACAAATTTTCCTAATCTTTCTGTTCAAGCGCCATCTAC | 0.932 RPM ratio (pull-down/input)
20 | GATGATTGTTCTCCCAGCTGATGAATTGTTGGTTTCGAGTAAACAAATTTTCCTAATCTTTCTGTTCAAGCGCCATCTAC | 1.89 RPM ratio (pull-down/input)
21 | GATGATTGTTCTCCCAGCTGATGAATTGCAGTTCTCGAGTAAACAAATTTTCCTAATCTTTCTGTTCAAGCGCCATCTAC | 1.06 RPM ratio (pull-down/input)
22 | GATGATTGTTCTCCCAGCTGATGAATTCCCGTGTTCGAGTAAACAAATTTTCCTAATCTTTCTGTTCAAGCGCCATCTAC | 0.867 RPM ratio (pull-down/input)
23 | GATGATTGTTCTCCCAGCTGATGAATTCCCATATTCGAGTAAACAAATTTTCCTAATCTTTCTGTTCAAGCGCCATCTAC | 0.903 RPM ratio (pull-down/input)
24 | GATGATTGTTCTCCCAGCTGATGAATTAGAAATTTCGAGTAAACAAATTTTCCTAATCTTTCTGTTCAAGCGCCATCTAC | 0.918 RPM ratio (pull-down/input)
25 | GATGATTGTTCTCCCAGCTGATGAATTTTCATGATCGAGTAAACAAATTTTCCTAATCTTTCTGTTCAAGCGCCATCTAC | 0.966 RPM ratio (pull-down/input)
26 | GATGATTGTTCTCCCAGCTGATGAATTGAATCATTCGAGTAAACAAATTTTCCTAATCTTTCTGTTCAAGCGCCATCTAC | 1.04 RPM ratio (pull-down/input)
27 | GATGATTGTTCTCCCAGCTGATGAATTGTTCGGGTCGAGTAAACAAATTTTCCTAATCTTTCTGTTCAAGCGCCATCTAC | 0.941 RPM ratio (pull-down/input)
28 | GATGATTGTTCTCCCAGCTGATGAATTGGCAGGATCGAGTAAACAAATTTTCCTAATCTTTCTGTTCAAGCGCCATCTAC | 0.794 RPM ratio (pull-down/input)
29 | GATGATTGTTCTCCCAGCTGATGAATTAAACATTTCGAGTAAACAAATTTTCCTAATCTTTCTGTTCAAGCGCCATCTAC | 1.42 RPM ratio (pull-down/input)
30 | GATGATTGTTCTCCCAGCTGATGAATTGATATAATCGAGTAAACAAATTTTCCTAATCTTTCTGTTCAAGCGCCATCTAC | 1.32 RPM ratio (pull-down/input)
31 | GATGATTGTTCTCCCAGCTGATGAATTTCACGGGTCGAGTAAACAAATTTTCCTAATCTTTCTGTTCAAGCGCCATCTAC | 0.753 RPM ratio (pull-down/input)
32 | GATGATTGTTCTCCCAGCTGATGAATTTCCGTAATCGAGTAAACAAATTTTCCTAATCTTTCTGTTCAAGCGCCATCTAC | 1.25 RPM ratio (pull-down/input)
